{"source": "the supplement of paper PMC3334620", "note": "Whole data set: some 33,000 sequences, median “E-score (-0.5 to 0.5)” near -0.017, cut for the highest 2% near 0.3. This is one part of the list."}
{"target": "T1, Sut1 (UniProt P53032)", "T1 sequence": "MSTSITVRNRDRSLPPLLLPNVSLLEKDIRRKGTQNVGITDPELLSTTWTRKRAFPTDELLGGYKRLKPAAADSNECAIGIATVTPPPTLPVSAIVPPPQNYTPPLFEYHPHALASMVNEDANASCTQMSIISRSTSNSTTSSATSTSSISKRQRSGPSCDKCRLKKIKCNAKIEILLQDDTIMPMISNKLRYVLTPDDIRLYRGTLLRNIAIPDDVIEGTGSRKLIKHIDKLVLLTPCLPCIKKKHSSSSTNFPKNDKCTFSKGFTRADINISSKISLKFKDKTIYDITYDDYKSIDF", "assay": "PBM E-score (8-mer binding enrichment) (E-score (-0.5 to 0.5)); higher = stronger / more preferred TF binding; most listed sequences are background and not binding sites", "settings": "protein concentration: 200 nM; construct: GST-full length", "method_in_brief": "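Bound GST-tagged yeast transcription factors, applied at about 100-200 nM to double-stranded universal all-10-mer Agilent arrays, were detected with fluorescent anti-GST. Scans were normalised with masliner. A modified Wilcoxon-Mann-Whitney statistic, the E-score, was assigned to each ungapped eight-base word pooled with its reverse complement by the Universal PBM Analysis Suite.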"}
{"sequence": "ATCACCTC", "PBM E-score": 0.00627}
{"sequence": "GTAGGGGA", "PBM E-score": -0.174}
{"sequence": "CATCTTAG", "PBM E-score": 0.0151}
{"sequence": "GTTTACCA", "PBM E-score": 0.135}
{"sequence": "ATCGATAG", "PBM E-score": -0.00817}
{"sequence": "AAGCAGAG", "PBM E-score": -0.037}
{"sequence": "ACTCCTGC", "PBM E-score": 0.0597}
{"sequence": "GCACTTTA", "PBM E-score": 0.013}
{"sequence": "ACGCGACA", "PBM E-score": 0.0269}
{"sequence": "GCAGACCA", "PBM E-score": -0.105}
{"sequence": "ATCTCGGG", "PBM E-score": 0.0127}
{"sequence": "GCAGAGAA", "PBM E-score": -0.00121}
{"sequence": "GCCGGTCC", "PBM E-score": -0.181}
{"sequence": "CGGCTCAC", "PBM E-score": -0.00015}
{"sequence": "AATGGAAA", "PBM E-score": -0.0179}
{"sequence": "CGCGAGCC", "PBM E-score": -0.106}
{"sequence": "CCGGGGAA", "PBM E-score": 0.0838}
{"sequence": "AAGGGCAT", "PBM E-score": -0.308}
{"sequence": "GTCTCAAC", "PBM E-score": 0.0183}
{"sequence": "AATCACAA", "PBM E-score": -0.0123}
{"sequence": "AGTCCGAT", "PBM E-score": 0.486}
{"sequence": "GATTATAA", "PBM E-score": 0.154}
{"sequence": "ACTGGTCA", "PBM E-score": -0.013}
{"sequence": "ATTGAGAG", "PBM E-score": 0.0325}
{"sequence": "AGCGGTAC", "PBM E-score": -0.189}
{"sequence": "AAAGGATA", "PBM E-score": 0.224}
{"sequence": "GCCCAACA", "PBM E-score": -0.216}
{"sequence": "AATTAGTC", "PBM E-score": 0.155}
{"sequence": "AATCCCCT", "PBM E-score": -0.219}
{"sequence": "CAGTACAG", "PBM E-score": -0.0275}
{"sequence": "CAGGCTTC", "PBM E-score": -0.0159}
{"sequence": "CAGTGCGA", "PBM E-score": -0.18}
{"sequence": "CCGAAGCC", "PBM E-score": 0.0551}
{"sequence": "AGCTGATG", "PBM E-score": -0.0349}
{"sequence": "CCGGACTC", "PBM E-score": 0.476}
{"sequence": "CAGTAGGG", "PBM E-score": -0.292}
{"sequence": "AGTGTGAC", "PBM E-score": -0.165}
{"sequence": "ACGTCCCC", "PBM E-score": -0.214}
{"sequence": "ATAGTCGG", "PBM E-score": 0.0106}
{"sequence": "GGCGCGGA", "PBM E-score": 0.0941}
{"sequence": "AGGGTACG", "PBM E-score": -0.186}
{"sequence": "ATCCTAGA", "PBM E-score": -0.0865}
{"sequence": "ACAGTAGA", "PBM E-score": 0.0255}
{"sequence": "ACAAATAC", "PBM E-score": 0.205}
{"sequence": "CGTCTCCA", "PBM E-score": -0.0128}
{"sequence": "ATCGGGAC", "PBM E-score": -0.121}
{"sequence": "ATCCCGTA", "PBM E-score": -0.0312}
{"sequence": "AGGAGCTA", "PBM E-score": -0.155}
{"sequence": "AGTCCAGA", "PBM E-score": 0.0785}
{"sequence": "CGGAGATA", "PBM E-score": 0.458}
{"sequence": "AAGGGATC", "PBM E-score": 0.0681}
{"sequence": "CAGCACCG", "PBM E-score": -0.0462}
{"sequence": "CCGAGTAA", "PBM E-score": 0.18}
{"sequence": "CTGAAGAC", "PBM E-score": -0.0142}
{"sequence": "GACTGCAC", "PBM E-score": -0.0253}
{"sequence": "ACGACTTA", "PBM E-score": -0.156}
{"sequence": "GGTCACAC", "PBM E-score": -0.311}
{"sequence": "TAGGGTGA", "PBM E-score": 0.0189}
{"sequence": "TCCTCTAA", "PBM E-score": -0.119}
{"sequence": "TAACCCGA", "PBM E-score": -0.0473}
{"sequence": "TACTACGA", "PBM E-score": 0.00078}
{"sequence": "CCAGACAA", "PBM E-score": -0.108}
{"sequence": "CTACCCTA", "PBM E-score": -0.152}
{"sequence": "GGCTCGTA", "PBM E-score": -0.15}
{"sequence": "ACGGCCTC", "PBM E-score": -0.29}
{"sequence": "ACTTGCTG", "PBM E-score": -0.163}
{"sequence": "GGCATGCA", "PBM E-score": 0.0182}
{"sequence": "CTCATTAC", "PBM E-score": 0.0834}
{"sequence": "TCCGCCAA", "PBM E-score": 0.112}
{"sequence": "GTTTACAA", "PBM E-score": 0.237}
{"sequence": "ATGGACCC", "PBM E-score": -0.0796}
{"sequence": "ATTATACG", "PBM E-score": 0.167}
{"sequence": "AACCCTAC", "PBM E-score": -0.287}
{"sequence": "AGGAGCAC", "PBM E-score": 0.0107}
{"sequence": "AGGCCAAG", "PBM E-score": -0.183}
{"sequence": "CATGTGTA", "PBM E-score": 0.0397}
{"sequence": "CGAATGCA", "PBM E-score": 0.0106}
{"sequence": "AACAGGGA", "PBM E-score": -0.00339}
{"sequence": "CCCACCCC", "PBM E-score": -0.0609}
{"sequence": "AGCCTCTA", "PBM E-score": -0.278}
{"sequence": "CAGAGTGC", "PBM E-score": -0.233}
{"sequence": "AGATATTC", "PBM E-score": 0.0706}
{"sequence": "AATAAACG", "PBM E-score": 0.266}
{"sequence": "ACATCTTG", "PBM E-score": -0.157}
{"sequence": "GATAATAC", "PBM E-score": 0.174}
{"sequence": "ACGCAGGA", "PBM E-score": -0.203}
{"sequence": "AATGTAAG", "PBM E-score": 0.234}
{"sequence": "ATACATAT", "PBM E-score": 0.247}
{"sequence": "CCGCGTCG", "PBM E-score": -0.132}
{"sequence": "AAGAGGGG", "PBM E-score": -0.0412}
{"sequence": "GCTTTAAA", "PBM E-score": 0.0726}
{"sequence": "AATGGGCT", "PBM E-score": -0.259}
{"sequence": "TGGGGTAA", "PBM E-score": 0.158}
{"sequence": "ACGCCCTG", "PBM E-score": -0.154}
{"sequence": "CATGCGCA", "PBM E-score": -0.128}
{"sequence": "GCGCGGCC", "PBM E-score": -0.0724}
{"sequence": "AACCGGAA", "PBM E-score": 0.229}
{"sequence": "CCGACGCA", "PBM E-score": -0.0538}
{"sequence": "ACCCAATA", "PBM E-score": 0.139}
{"sequence": "ATAACATG", "PBM E-score": 0.194}
{"sequence": "CAACACAA", "PBM E-score": 0.143}
{"sequence": "AGCGCTGC", "PBM E-score": -0.137}
{"sequence": "AATTCAAT", "PBM E-score": 0.156}
{"sequence": "ATCAGCAC", "PBM E-score": 0.0955}
{"sequence": "CAATCGCC", "PBM E-score": -0.127}
{"sequence": "AGCGATCG", "PBM E-score": -0.0981}
{"sequence": "GAACATGC", "PBM E-score": 0.0218}
{"sequence": "AGTCGAAC", "PBM E-score": 0.0861}
{"sequence": "ACGAAATC", "PBM E-score": 0.109}
{"sequence": "GATTTCAC", "PBM E-score": 0.184}
{"sequence": "GGGCGTCA", "PBM E-score": -0.171}
{"sequence": "GCCGCCAA", "PBM E-score": -0.128}
{"sequence": "CGCAAATA", "PBM E-score": 0.198}
{"sequence": "CCCTCACC", "PBM E-score": -0.213}
{"sequence": "ATTGCCCG", "PBM E-score": -0.148}
{"sequence": "ATTCTTGA", "PBM E-score": 0.138}
{"sequence": "TATTGAAA", "PBM E-score": 0.193}
{"sequence": "GCTGATCA", "PBM E-score": 0.0284}
{"sequence": "CATGGCAG", "PBM E-score": -0.108}
{"sequence": "AGCGCTGA", "PBM E-score": -0.115}
{"sequence": "CCGGTTAC", "PBM E-score": -0.059}
{"sequence": "CCGAGCCG", "PBM E-score": 0.144}
{"sequence": "ATCAACCA", "PBM E-score": 0.00574}
{"sequence": "GGTCCTAC", "PBM E-score": -0.214}
{"sequence": "ATGATCAA", "PBM E-score": 0.124}
{"sequence": "ATTTAATG", "PBM E-score": 0.259}
{"sequence": "AGAGCCGC", "PBM E-score": 0.0336}
{"sequence": "ACGAAGCT", "PBM E-score": -0.0508}
{"sequence": "ATGTAGCC", "PBM E-score": -0.335}
{"sequence": "ACATTGGA", "PBM E-score": -0.0465}
{"sequence": "CCGTTCTA", "PBM E-score": 0.154}
{"sequence": "CCGCAACA", "PBM E-score": 0.0608}
{"sequence": "CGCATCAG", "PBM E-score": 0.0948}
{"sequence": "ATATCACC", "PBM E-score": 0.181}
{"sequence": "ACGGGTCG", "PBM E-score": -0.13}
{"sequence": "TGAAGGAA", "PBM E-score": 0.0901}
{"sequence": "CGCGCCAA", "PBM E-score": -0.064}
{"sequence": "AATGCTAC", "PBM E-score": 0.0674}
{"sequence": "CTAGTGGA", "PBM E-score": -0.187}
{"sequence": "GTCTCTTA", "PBM E-score": 0.104}
{"sequence": "CGCATTCA", "PBM E-score": 0.115}
{"sequence": "AAGCAACG", "PBM E-score": -0.0575}
{"sequence": "ATGACTGA", "PBM E-score": 0.0154}
{"sequence": "AACCTAGA", "PBM E-score": 0.0488}
{"sequence": "GAACCGCA", "PBM E-score": 0.0646}
{"sequence": "CGCAGCGC", "PBM E-score": -0.112}
{"sequence": "ATATACGA", "PBM E-score": 0.0649}
{"sequence": "ATTCGTCC", "PBM E-score": 0.155}
{"sequence": "AAAGTGAG", "PBM E-score": 0.0249}
{"sequence": "ACATGTCT", "PBM E-score": 0.0211}
{"sequence": "ATAGCGAC", "PBM E-score": -0.0526}
{"sequence": "GCGCCCAC", "PBM E-score": -0.179}
{"sequence": "AGAGGGCA", "PBM E-score": -0.226}
{"sequence": "ACGAAACT", "PBM E-score": 0.0657}
{"sequence": "CCGGAGAA", "PBM E-score": 0.397}
{"sequence": "GTCCGTAA", "PBM E-score": 0.342}
{"sequence": "ATCTAGTA", "PBM E-score": 0.0605}
{"sequence": "GCCATCCA", "PBM E-score": -0.206}
{"sequence": "CGTGTGAC", "PBM E-score": -0.0883}
{"sequence": "AAGTTGGC", "PBM E-score": 0.124}
{"sequence": "ATCAGGGA", "PBM E-score": -0.257}
{"sequence": "GCTGTTCC", "PBM E-score": -0.116}
{"sequence": "ATGCTATG", "PBM E-score": -0.0168}
{"sequence": "GAGCTTAA", "PBM E-score": -0.0199}
{"sequence": "AGGAGTAA", "PBM E-score": 0.0575}
{"sequence": "CCGGTACG", "PBM E-score": -0.201}
{"sequence": "CTTCCACC", "PBM E-score": -0.13}
{"sequence": "GCACTCGA", "PBM E-score": 0.00498}
{"sequence": "CATAAGCG", "PBM E-score": -0.0855}
{"sequence": "ACCAGTTC", "PBM E-score": -0.147}
{"sequence": "ACTTATTA", "PBM E-score": 0.14}
{"sequence": "CGAATAGA", "PBM E-score": -0.0877}
